Assay results reported in publication PMC4336329 (PLoS ONE, 2015).
Hit rate of the full screen: of about 310,000 compounds, about 14,000 (4.5%) showed an effect of 50% or more. Effects have a minus sign here. This is one part of the list.

molecular target: human ether-à-go-go-related gene (hERG) potassium channel (human, UniProt Q12809); test: primary screen, population patch clamp on CHO cells stably expressing hERG
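Also: peak tail current of the secondary pulse compared with the same well before compound.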

human ether-à-go-go-related gene (hERG) potassium channel, sequence (Q12809 whole entry, looked up): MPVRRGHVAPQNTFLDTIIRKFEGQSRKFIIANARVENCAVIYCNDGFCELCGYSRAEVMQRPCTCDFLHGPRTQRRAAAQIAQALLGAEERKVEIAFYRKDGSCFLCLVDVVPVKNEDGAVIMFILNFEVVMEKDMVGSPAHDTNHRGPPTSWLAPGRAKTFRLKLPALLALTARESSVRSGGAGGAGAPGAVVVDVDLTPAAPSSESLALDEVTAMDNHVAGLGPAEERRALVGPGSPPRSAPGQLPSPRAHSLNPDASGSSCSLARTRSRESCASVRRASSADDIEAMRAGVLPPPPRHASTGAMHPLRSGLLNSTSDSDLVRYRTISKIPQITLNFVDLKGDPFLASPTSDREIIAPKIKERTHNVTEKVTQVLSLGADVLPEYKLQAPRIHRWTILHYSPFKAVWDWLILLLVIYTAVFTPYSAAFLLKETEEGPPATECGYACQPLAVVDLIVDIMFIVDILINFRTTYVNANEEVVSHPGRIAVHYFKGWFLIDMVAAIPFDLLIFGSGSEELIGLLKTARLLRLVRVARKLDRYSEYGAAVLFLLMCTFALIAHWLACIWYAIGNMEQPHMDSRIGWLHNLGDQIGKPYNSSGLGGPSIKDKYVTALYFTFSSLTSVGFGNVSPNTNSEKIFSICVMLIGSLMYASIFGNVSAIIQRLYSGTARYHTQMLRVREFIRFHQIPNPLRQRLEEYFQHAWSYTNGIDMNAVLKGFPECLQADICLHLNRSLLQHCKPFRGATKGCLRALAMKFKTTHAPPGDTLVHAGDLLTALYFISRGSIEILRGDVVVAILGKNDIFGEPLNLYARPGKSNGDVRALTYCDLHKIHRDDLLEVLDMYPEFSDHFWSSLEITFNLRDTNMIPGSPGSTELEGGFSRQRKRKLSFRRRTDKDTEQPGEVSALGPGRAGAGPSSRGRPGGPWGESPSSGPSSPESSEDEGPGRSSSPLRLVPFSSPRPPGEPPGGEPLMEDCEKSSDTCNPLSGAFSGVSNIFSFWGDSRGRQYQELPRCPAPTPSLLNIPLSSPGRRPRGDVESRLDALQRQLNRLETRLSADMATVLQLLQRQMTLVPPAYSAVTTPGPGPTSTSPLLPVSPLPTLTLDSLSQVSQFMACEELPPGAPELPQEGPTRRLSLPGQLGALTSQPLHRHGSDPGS

Row | SMILES | hERG current change (%, negative = inhibition) at 10uM
1 | CCOC(=O)N1N=C(c2ccc(OC)cc2)CC1(O)C(F)(F)F (centres unmarked) | 12.7%
2 | O=C(O)CCCC(=O)N1CCc2cc(S(=O)(=O)NCc3ccc(F)cc3)ccc21 | 32.8%
3 | O=C(CSc1nc2ccccc2o1)N1c2ccccc2Sc2ccc(Cl)cc21 | -4.23%
4 | Cc1ccc(O)c(C2=NOC(O)(C(F)(F)F)C2)c1 (centres unmarked) | -6.25%
5 | C/C(=N\NC(=O)C1CC1)c1ccc(Cl)cc1 | 8.35%
6 | Cc1cc(N2CCN(C(=O)c3ccco3)CC2)n2nc(-c3cccc(Cl)c3)cc2n1 | -1.09%
7 | O=C(c1nc2ccccn2c1CN1CCCC(OCc2ccccc2)C1)N1CCCC1 (centres unmarked) | -44.8%
8 | CC(=O)Nc1nc(C2COc3ccccc3O2)cs1 (centres unmarked) | 9.03%
9 | Cc1ccc(S(=O)(=O)/C(C#N)=C/c2c(Oc3ccc(Cl)cc3)nc3c(C)cccn3c2=O)cc1 | 19.3%
10 | Cc1ccc(C(=O)NCc2ccc(N3CCN(C(=O)OC(C)(C)C)CC3)cc2)cc1 | 10.1%
11 | CCC(=O)N(C1=C(NC)C(=O)c2ccccc2C1=O)C(C)C | -0.0223%
12 | Cc1ccc(C)c(NC(=O)CSc2nc(C)cc(C)c2C#N)c1 | 9.7%
13 | N#CC(Cc1ccccc1OC(F)F)c1nc2ccccc2[nH]1 (centres unmarked) | -16.2%
14 | CSc1nc2[nH]ncc2c(=O)[nH]1 | 7.53%
15 | O=C(CSc1nnc(-c2ccncc2)o1)N1CCc2ccccc2C1 | -37.4%
16 | COc1ccc(CCCc2n[nH]c(=S)o2)cc1C | 15.8%
17 | Clc1cncc(Cl)c1NNc1c2ccccc2nc2ccccc12 | -4.88%
18 | COc1ccc2[nH]cc(/C=C(/C#N)S(=O)(=O)c3ccccc3)c2c1 | 13.5%
19 | COc1cccc(/C=N\NC(=O)c2cc(OCC(F)(F)F)ccc2OCC(F)(F)F)c1 | 6.6%

Row | SMILES | hERG current change (%, negative = inhibition) at 10uM
20 | O=P(CCNCc1ccco1)(c1ccccc1)c1ccccc1 | -23.3%
21 | CCOC(=O)CCc1c(C)nc2cc(-c3ccc(F)cc3)[nH]n2c1=O | -2.68%
22 | O=C(CN1C(=O)NC2(CCCC2)C1=O)NNC(=O)c1ccc(F)cc1 | 28.9%
23 | Cc1ccc(C(=O)Nc2ccccc2C(N)=O)o1 | -4.38%
24 | CC1CCN(CCCn2c(SCC(=O)NC3CCCC3)nc3ccccc3c2=O)CC1 | -77%
25 | Cc1nn(C)c(Cl)c1CN1CCN(CC(C)C)C(CCO)C1 (centres unmarked) | 0.825%
26 | CC(Cc1ccccc1)[n+]1cc(/N=C(\[O-])N(C)C)on1.Cl (centres unmarked) | -4.3%
27 | Clc1ccc(Cl)c2sc(N3CCOCC3)nc12 | 2.8%
28 | CCCCSc1c(C)c2cc3c(cc2[nH]c1=O)OCO3 | 8.22%
29 | CCC(C)Nc1nc(SC(C(C)=O)C(C)=O)nc(N(C)C)n1 (centres unmarked) | -18.1%
30 | COc1ccc(Cn2c(O)c(/C=N/NC(=O)c3ccccc3O)c(=O)[nH]c2=O)cc1 | 5.9%
31 | CC(NCC(=O)NC(=O)NC1CCCC1)c1ccc(Cl)cc1Cl (centres unmarked) | -25.1%
32 | CC(=O)Nc1ccc2nc(NC(=O)c3cccs3)sc2c1 | 24.6%
33 | Cc1ccnc(Sc2ccc([N+](=O)[O-])cc2[N+](=O)[O-])n1 | 3.78%
34 | CCc1cccc(C)c1NC(=O)CN(C)S(=O)(=O)c1ccc(-c2ccc(=O)[nH]n2)s1 | -55.3%
35 | Cc1csc(NC(=O)CSc2nc3ccccc3s2)n1 | -17.6%
36 | O=c1c2c([N+](=O)[O-])cc([N+](=O)[O-])cc2sn1Cc1ccccc1 | 23.3%
37 | COc1ccc(C(=O)C2CCCN(Cc3c(F)ccc(F)c3F)C2)c(OC)c1 (centres unmarked) | -30.9%
38 | c1ccc(CN2CCC(Nc3nc(-c4cccs4)nc4ccccc34)CC2)cc1 | -59.9%

Row | SMILES | hERG current change (%, negative = inhibition) at 10uM
39 | COc1cccc(CNC(=O)CCNC(=O)Cn2ccc3ccccc3c2=O)c1 | 10%
40 | CCOCCCNCC(=O)NCC1CCCCC1.O=C(O)C(=O)O | 31.6%
41 | Cc1nc(NC(=O)/C=C/c2ccccc2)sc1C(=O)Nc1ccccc1Cl | 13.3%
42 | COc1ccc(C(CC(=O)N2CCC3(CC2)OCCO3)NS(=O)(=O)c2ccc(C)cc2)cc1 (centres unmarked) | -8.66%
43 | CCCCNC(=O)NS(=O)(=O)c1ccc(NS(=O)(=O)c2ccccc2)cc1 | 7.98%
44 | C/C(CS(=O)(=O)c1ccc(Cl)cc1)=N/NC(N)=S | -14.2%
45 | Cc1cc2c(=O)n(CC(=O)N3CCN(c4ccc(F)cc4)CC3)cnc2s1 | -12.4%
46 | COc1ccc(NCC(=O)Nc2cc(S(=O)(=O)N3CCOCC3)ccc2N2CCOCC2)c(OC)c1 | -7.17%
47 | N#Cc1c2c(c(Nc3ccc(O)cc3)n3c1nc1ccccc13)CCC2 | 5.51%
48 | COC(=O)C1=C(c2cccc(OCc3ccccc3)c2)C[C@@H]2CC[C@H]1N2C(=O)NCc1ccc(OC)cc1 | 9.68%
49 | NC(=O)c1ccc(NC(=O)CN2CCN(C(=O)c3ccco3)CC2)cc1 | -3.09%
50 | COC(=O)COc1ccc2oc(=O)cc(-c3cc4ccccc4o3)c2c1 | 10.9%
51 | COc1ccc(CN(C)C(=O)CCc2ccc(S(=O)(=O)N3CCCCCC3)cc2)c(OC)c1 | -29.8%
52 | CCOc1ccc2nc(N(CCN(C)C)C(=O)c3cc4ccccc4cc3OC)sc2c1.Cl | 1.72%
53 | COc1ccc(OC)c(N2C(=O)CC(C(C)c3ccccc3)C2=O)c1 (centres unmarked) | 7.28%
54 | CC12CN(C(=O)c3cccc([N+](=O)[O-])c3)C3(C#N)CC1CCC23C (centres unmarked) | 5.65%
55 | CCN(CC(=O)Nc1ccc2c(c1)OCCO2)S(=O)(=O)c1ccccc1 | 16.1%
56 | CCOC(=O)CN1CC23C=CC(O2)C(C(=O)NC2CCCCCC2)C3C1=O (centres unmarked) | -10.3%
